Toxic doses and inconclusive results are not listed. Not every entry of the source has a single result; some have several. The list is limited to them. There may be further records. The values listed for one entry are repeats in other runs, samples, wells, individuals or studies.
System: L1210 leukemia ip in BDF1 mice, survival T/C
Test: NCI In Vivo Anticancer Drug Screen. Data for tumor model L1210 Leukemia (intraperitoneal) in B6D2F1 (BDF1) mice
Details: endpoint: mean survival time, higher = longer survival
[1] = dose: 200.0 mg/kg/injection, schedule: Q01DX009 (ip), vehicle: saline

SMILES: CCN(CCNc1ccc(C)c2sc3ccccc3c(=O)c12)CC(C)(C)O
- T/C [1]: 124 % of control and 162 % of control

SMILES: COc1cc([C@@H]2c3cc4c(cc3C[C@H]3COC(=O)[C@@H]32)OCO4)cc(OC)c1OC
- T/C (dose: 100.0 mg/kg/injection, schedule: Q01DX001 (ip), vehicle: saline): 121 % of control and 151 % of control

SMILES: Nc1nc(N)c2nc(CNc3ccc(C(=O)NC(CCC(=O)O)C(=O)O)cc3)cnc2n1 (stereo not drawn)
- T/C (dose: 0.05 mg/kg/injection, schedule: Q01DX Z (ip), vehicle: saline): 120 % of control and 151 % of control
- T/C (dose: 0.12 mg/kg/injection, schedule: Q01DX Z (ip), vehicle: saline): 93 % of control, 114 % of control, 174 % of control
- T/C (dose: 0.2 mg/kg/injection, schedule: Q01DX010 (ip), vehicle: other): 113 % of control and 161 % of control

SMILES: N=C(N)Cc1ccc(NC(=O)c2ccc(C(=O)Nc3ccc(CC(=N)N)cc3)cc2)cc1
- T/C (dose: 75.0 mg/kg/injection, schedule: Q01DX001 (ip), vehicle: carboxymethylcellulose (CMC)): 121 % of control and 162 % of control

SMILES: O=C(O)C1C(C(=O)O)C2(Cl)C(Cl)=C(Cl)C1(Cl)C2(Cl)Cl.[Co] (stereo not drawn)
- T/C (dose: 50.0 mg/kg/injection, schedule: Q01DX009 (ip), vehicle: saline sonified): 113 % of control and 176 % of control

SMILES: O=NN(CCCl)C(=O)NC1CCS(=O)(=O)CC1
- T/C (dose: 25.0 mg/kg/injection, schedule: Q01DX001 (ip), vehicle: carboxymethylcellulose (CMC)): 111 % of control and 166 % of control

SMILES: O=C(Nc1ccc(C2=NCCN2)cc1)c1cc(C(=O)Nc2ccc(C3=NCCN3)cc2)ncn1
- T/C (dose: 15.0 mg/kg/injection, schedule: Q01DX015 (ip), vehicle: methylcellulose (MC)): 120 % of control and 162 % of control

SMILES: CCOC(=O)C(=CNc1ccc(OC)cc1[N+](=O)[O-])C(=O)OCC
- T/C (dose: 50.0 mg/kg/injection, schedule: Q01DX009 (ip), vehicle: saline with Tween-80): 87 % of control and 177 % of control

SMILES: C[SH+]c1ccccc1N=Cc1ccccn1.C[SH+]c1ccccc1N=Cc1ccccn1.[Ni+2].[O-][Cl+3]([O-])([O-])[O-]
- T/C (dose: 200.0 mg/kg/injection, schedule: Q01DX001 (ip), vehicle: saline): 95 % of control, 102 % of control, 175 % of control

SMILES: CS(=O)(=O)OCCN(CCOS(C)(=O)=O)c1ccc(C=Nc2ccc3ccccc3c2)cc1
- T/C (dose: 80.0 mg/kg/injection, schedule: Q04DX003 (ip), vehicle: Klucel (hydroxypropylcellulose) (HPC)): 124 % of control and 152 % of control

SMILES: CCCCCCC(C)OC(=O)CCCc1ccc(N(CCCl)CCCl)cc1 (stereo not drawn)
- T/C [1]: 106 % of control and 158 % of control

Source: PubChem BioAssay AID248 (DTP/NCI, 2004)
